Source: the antibiotic and cytotoxicity screens of Wong et al. (2023)
The list shows a part of the results.

These compounds were tested on S. aureus RN4220 (assay: growth inhibition call (relative growth <= 0.2)). Details: 50 µM.

Growth inhibition call, inactive:
C[C@H](CO)N1C[C@H](C)[C@H](CN(C)Cc2ccc(C(F)(F)F)cc2)OCCCC[C@H](C)Oc2ccc(NC(=O)NC3CCCCC3)cc2C1=O
COc1ccc(NC(=O)Nc2ccc3c(c2)C(=O)N([C@@H](C)CO)C[C@@H](C)[C@@H](CN(C)C(=O)Nc2ccc(F)cc2)OCCCC[C@@H](C)O3)cc1
CC(C)NC(=O)Nc1ccc2c(c1)C(=O)N([C@H](C)CO)C[C@@H](C)[C@@H](CN(C)S(=O)(=O)c1ccc(F)cc1)O2
C[C@H](CO)N1C[C@H](C)[C@H](CN(C)Cc2ccc(C(=O)O)cc2)OCCCC[C@H](C)Oc2ccc(NS(=O)(=O)c3ccc(Cl)cc3)cc2C1=O
COc1ccc(S(=O)(=O)Nc2ccc3c(c2)C(=O)N([C@@H](C)CO)C[C@@H](C)[C@H](CN(C)Cc2ccc4c(c2)OCO4)OCCCC[C@H](C)O3)cc1
Cc1noc(C)c1NC(=O)N(C)C[C@H]1Oc2ccc(NC(=O)CCN3CCOCC3)cc2CC(=O)N([C@@H](C)CO)C[C@H]1C
O=C(N[C@@H]1CC=CC[C@H](CC(=O)N(CCO)Cc2ccccc2)C(=O)NCC(c2ccccc2)OC1=O)OCC1c2ccccc2-c2ccccc21 (stereo partly drawn)
C[C@H]1CCCCO[C@H](CN(C)S(=O)(=O)c2cccs2)[C@@H](C)CN([C@@H](C)CO)C(=O)c2cc(NS(=O)(=O)c3ccc(Cl)cc3)ccc2O1
C=CC[C@H](CC(=O)N(CCO)Cc1ccccc1)C(=O)NCCOC(=O)[C@H](CC=C)CC(=O)OC(C)(C)C
C[C@H]1CN([C@@H](C)CO)C(=O)Cc2cc(NS(C)(=O)=O)ccc2O[C@H]1CN(C)S(=O)(=O)c1ccc(F)cc1
COc1ccc(S(=O)(=O)Nc2cccc3c2O[C@@H](CN(C)S(=O)(=O)c2cn(C)cn2)[C@H](C)CN([C@H](C)CO)C3=O)cc1
C[C@@H]1CN([C@@H](C)CO)C(=O)CCCn2nncc2CO[C@@H]1CN(C)S(=O)(=O)c1cccc(C#N)c1
C=CCN1C(=O)[C@]2(O[C@H](CCO)[C@@H]([Si](C)(C)c3ccc(OC)cc3)[C@@H]2C)c2cc(N(C=O)c3ccccc3)ccc21
C[C@H](CO)N1C[C@H](C)[C@@H](CN(C)S(=O)(=O)c2cn(C)cn2)Oc2cc(C#Cc3ccc(F)cc3)ccc2S1(=O)=O
C[C@@H]1CN([C@H](C)CO)C(=O)c2cc(NC(=O)c3ccncc3)ccc2O[C@@H](C)CCCCO[C@@H]1CN(C)C(=O)C1CCCCC1
C[C@H](CO)N1C[C@H](C)[C@H](CN(C)S(=O)(=O)c2cccs2)Oc2ccc(NC(=O)Cc3ccccc3)cc2C1=O
COC(=O)[C@H](Cc1ccc(-n2cc(C(=O)NO)nn2)cc1)N[C@H](/C=C/C1CC1)[C@@H](O)Cc1ccccc1
Cl.c1ccc2c(CC3=NCCN3)cccc2c1
O=S(=O)(NCC[C@H]1CC[C@H](NS(=O)(=O)c2cccc(Cl)c2)[C@H](CO)O1)c1cccc(F)c1
C[C@@H]1CN([C@H](C)CO)C(=O)c2cc(NS(C)(=O)=O)ccc2O[C@@H](C)CCCCO[C@@H]1CN(C)S(C)(=O)=O
C[C@H]1CN([C@@H](C)CO)C(=O)c2cc(NC(=O)Cc3cn(C)c4ccccc34)ccc2O[C@H]1CN(C)C(=O)Nc1cccc2ccccc12
C[C@@H]1CCCCO[C@@H](CN(C)C(=O)Nc2cccc3ccccc23)[C@H](C)CN([C@@H](C)CO)C(=O)c2cc(NC(=O)CCCN(C)C)ccc2O1
COc1cccc(NC(=O)C[C@H]2CC[C@@H]3[C@H](COc4ccc(NC(=O)C5CCOCC5)cc4C(=O)N3C)O2)c1
Cc1ccc(S(=O)(=O)N[C@@H](Cc2ccccc2)C(=O)NCCn2cc(-c3ccc(C(=O)NO)s3)nn2)cc1
CC[N+](CC)(CC)CCOc1ccc(/C=C/c2ccccc2)cc1
COc1ccccc1CNC(=O)C[C@H]1C[C@@H]2c3cc(NC(=O)c4ccc5c(c4)OCO5)ccc3O[C@@H]2[C@H](CO)O1
Cc1ccc(S(=O)(=O)N(C)C[C@H]2Oc3c(NS(=O)(=O)c4cn(C)cn4)cccc3C(=O)N([C@@H](C)CO)C[C@H]2C)cc1
CS(=O)(=O)CC(=O)N1C[C@H]2COC[C@@]2(COc2ccccn2)C1
